Laboratory results from publication PMC11527351.
No constants are given. Whether binding was seen depends on the method and setting. Binding seen in cells or lysates may run through a third protein. Some binding calls cover weakened binding; strength is not graded here. One block for each molecule: values may come before it.

Protein sequences, listed by entry. Tags and fused reporters are not part of them.
UniProt Q9CQS8: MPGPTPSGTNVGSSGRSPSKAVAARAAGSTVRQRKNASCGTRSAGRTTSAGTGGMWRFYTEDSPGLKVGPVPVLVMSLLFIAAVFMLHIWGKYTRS

Tests used:
[1] = target: T1, Guanine nucleotide exchange factor (GEF)-H1 (mouse (endogenous in BMDMs)) (UniProt Q60875); experiment: co-IP; immunoprecipitation of endogenous GEF-H1 (GEF-H1 antibody, protein G agarose) from lysates of mouse BMDMs stimulated with 25 μM GMTriP-K (time course, 1 to 18 hours); Pierce IP lysis buffer, 4 °C overnight; immunoblot
T1 sequence: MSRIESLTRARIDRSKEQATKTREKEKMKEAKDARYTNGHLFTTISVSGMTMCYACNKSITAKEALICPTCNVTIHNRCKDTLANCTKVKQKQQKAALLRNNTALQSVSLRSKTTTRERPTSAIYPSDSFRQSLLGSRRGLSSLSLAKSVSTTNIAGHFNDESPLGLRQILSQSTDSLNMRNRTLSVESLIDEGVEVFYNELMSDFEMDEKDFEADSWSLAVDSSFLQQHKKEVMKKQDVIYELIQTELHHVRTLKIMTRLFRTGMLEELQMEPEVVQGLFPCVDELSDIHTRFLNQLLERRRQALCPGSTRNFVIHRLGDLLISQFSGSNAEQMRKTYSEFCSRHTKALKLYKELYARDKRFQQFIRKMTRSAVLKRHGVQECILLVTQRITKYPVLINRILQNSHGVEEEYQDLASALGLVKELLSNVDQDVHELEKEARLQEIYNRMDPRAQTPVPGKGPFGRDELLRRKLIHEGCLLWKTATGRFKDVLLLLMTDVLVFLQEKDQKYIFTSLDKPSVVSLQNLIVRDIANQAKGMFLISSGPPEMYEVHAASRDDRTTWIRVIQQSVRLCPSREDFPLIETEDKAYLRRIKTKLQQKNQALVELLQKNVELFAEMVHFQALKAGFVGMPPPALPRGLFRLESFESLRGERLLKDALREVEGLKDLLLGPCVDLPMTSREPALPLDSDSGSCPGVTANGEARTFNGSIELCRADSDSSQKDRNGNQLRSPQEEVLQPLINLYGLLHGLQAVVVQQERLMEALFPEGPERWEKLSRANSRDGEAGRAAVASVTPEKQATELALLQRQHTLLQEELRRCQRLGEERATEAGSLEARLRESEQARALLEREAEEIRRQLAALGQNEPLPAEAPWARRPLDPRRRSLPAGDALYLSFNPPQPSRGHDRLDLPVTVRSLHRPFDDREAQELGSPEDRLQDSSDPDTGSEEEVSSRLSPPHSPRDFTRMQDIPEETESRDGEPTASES

[2] = target: T1, Guanine nucleotide exchange factor (GEF)-H1 (mouse (endogenous in BMDMs)); experiment: condition: only macrophages without GMTriP-K (unstimulated, 25μg /mL cdi-GMP or 100ng/mL LPS); co-IP; immunoprecipitation with the N-terminus GEF-H1 antibody from lysates of mouse macrophages (BMDMs) without GMTriP-K: unstimulated, 25 μg/mL cdi-GMP or 100 ng/mL LPS; immunoblot
[3] = target: T2, NOD2 (mouse (endogenous in BMDMs)) (UniProt Q8K3Z0); experiment: co-IP; immunoprecipitation with an antibody against NOD2 from lysates of mouse BMDMs after GMTriP-K stimulation; Pierce IP lysis buffer, protein G agarose; immunoblot
T2 sequence: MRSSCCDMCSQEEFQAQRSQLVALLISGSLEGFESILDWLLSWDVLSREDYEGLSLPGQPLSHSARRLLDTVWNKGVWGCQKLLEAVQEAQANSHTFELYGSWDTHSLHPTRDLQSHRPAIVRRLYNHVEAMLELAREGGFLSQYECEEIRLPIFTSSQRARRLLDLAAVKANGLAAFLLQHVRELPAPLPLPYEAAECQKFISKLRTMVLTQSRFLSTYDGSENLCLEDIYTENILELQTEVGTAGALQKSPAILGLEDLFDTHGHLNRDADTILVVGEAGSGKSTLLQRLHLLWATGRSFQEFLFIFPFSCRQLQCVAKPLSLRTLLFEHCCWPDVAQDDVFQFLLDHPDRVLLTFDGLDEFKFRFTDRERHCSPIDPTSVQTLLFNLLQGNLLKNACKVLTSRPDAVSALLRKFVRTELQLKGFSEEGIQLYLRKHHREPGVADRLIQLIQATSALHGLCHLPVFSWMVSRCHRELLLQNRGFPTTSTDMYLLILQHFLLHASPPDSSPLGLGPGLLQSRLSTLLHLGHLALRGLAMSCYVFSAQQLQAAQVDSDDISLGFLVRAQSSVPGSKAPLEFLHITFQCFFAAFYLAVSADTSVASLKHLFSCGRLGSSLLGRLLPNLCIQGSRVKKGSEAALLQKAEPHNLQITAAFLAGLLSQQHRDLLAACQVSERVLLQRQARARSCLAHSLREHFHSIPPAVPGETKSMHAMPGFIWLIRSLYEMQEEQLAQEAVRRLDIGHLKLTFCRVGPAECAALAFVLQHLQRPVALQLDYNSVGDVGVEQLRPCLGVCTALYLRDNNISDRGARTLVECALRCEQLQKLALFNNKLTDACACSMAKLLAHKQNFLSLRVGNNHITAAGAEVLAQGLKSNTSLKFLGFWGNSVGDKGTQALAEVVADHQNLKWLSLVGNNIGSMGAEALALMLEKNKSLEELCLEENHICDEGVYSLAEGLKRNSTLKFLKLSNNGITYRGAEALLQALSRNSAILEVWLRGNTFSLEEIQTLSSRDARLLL

[4] = target: T3, Peptidoglycan recognition protein 1 (PGLYRP-1) (mouse (endogenous in BMDMs)) (UniProt O88593); experiment: co-IP; immunoprecipitation with an antibody against PGLYRP-1 from lysates of mouse BMDMs after GMTriP-K stimulation; Pierce IP lysis buffer, protein G agarose; immunoblot
T3 sequence: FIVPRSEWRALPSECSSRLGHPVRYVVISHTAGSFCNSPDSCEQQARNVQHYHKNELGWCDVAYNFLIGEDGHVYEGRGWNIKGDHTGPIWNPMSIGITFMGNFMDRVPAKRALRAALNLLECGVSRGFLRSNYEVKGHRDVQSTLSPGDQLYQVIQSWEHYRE

[5] = target: T1, Guanine nucleotide exchange factor (GEF)-H1 (mouse (endogenous in BMDMs)); experiment: co-IP; immunoprecipitation with the N-terminus GEF-H1 antibody from lysates of mouse macrophages (BMDMs) without GMTriP-K: unstimulated, 25 μg/mL cdi-GMP or 100 ng/mL LPS; immunoblot

B1: Peptidoglycan recognition protein 1 (PGLYRP-1) (protein, UniProt O88593 19-182)
chain: T3 sequence
- binding [3]: binds
- binding [1]: binds
- binding [2]: no binding

B2: NOD2 (protein, UniProt Q8K3Z0 1-1020)
chain: T2 sequence
- binding [4]: binds
- binding [1]: binds
- binding [2]: no binding

B3: Guanine nucleotide exchange factor (GEF)-H1 (protein, UniProt Q60875 1-985)
chain: T1 sequence
- binding [3]: binds
- binding [4]: binds

Next, values leading:

- binding [1]: binds
- binding [2]: no binding
Molecule: Sec61β (from UniProt Q9CQS8 1-96)

- binding [5]: binds
- binding [1]: binds
B4: cis-Golgi matrix protein 130 (GM130/GOLGA2) (protein, UniProt Q921M4 1-999)
chain: MWPPRFPPPRPGMSEETRQSKLAAAKKKLREYQQKNSPGVPAGAKKKKKIKNGHSPERPTASDCQSPENVPTDHIAPAPPTAATDTMFLGVTPSPDADLTQSHDAGNCSNLMEETKTFSSTESLRQLSQQLNGLVSESTSYINGEGLTSSNMKELENRYQELAVALDSSYVTNKQLSSTIEELKQQNQDTLDQLEKEKKDYQQKLAKEQGSLREQLQVHIQTIGILVSEKAELQTALAHTQQAARQKAGESEDLASRLQSSRQRVGELERTLSTVSTQQKQADRYNKDLTKERDALKLELYKNSKSNEDLRQQNSELEEKLRVLVAEKAAAQLGVEELQKKLEMSELLLQQFSSQSSAAGGNEQLQHAMEERAQLETHVSQLMESLKQLQVERDQYAENLKGESAMWQQRVQQMAEQVHTLKEEKEHRERQVQELETSLAALRSQMEEPPPPEPPAGPSEAEEQLQGEVEQLHKELERLTGQLRAQVQDNESLSHLNREQEGRLLELEREAQRWSEQAEERKQILESMQSDRTTISRALSQNRELKEQLAELQNGFVRLTNENMEITSALQSEQHVKKELARKLGELQERLGELKETVELKSQEAQGLQEQRDQCLSHLQQYAAAYQQHLAAYEQLTSEKEAIHKQLLLQTQLMDQLQHEEVQGKMAAELARQELQEAQERLKATSQENQQLQAQLSLLVLPGEGDVDQEEEDEEVPQSSLAIPEDLDSREAMVAFFNAAIARAEEEQARLRVQLKEQKARCRSLSHLAAPVQSKLEKEAVVPRNVDDSASEESNQALHVAMEKLQSRFLEVMQEKVELKERVEELEHCCIQLSGETDTIGEYIALYQNQRAVLKARHLEKEEYISRLAQDKEEMKVKLLELQELVLRLVNERNEWQGKFLAVSQNPGDVLTPVPTGSQEFGAADQQDDLREVSLADDIEPAQGEAGVPAPHENPTAQQIMQLLREIQNPRERPGLGSNPCIPFFYRADENDEVKIMVV
